In all, about 150,000 compounds went through this assay and about 540 (0.36%) showed an effect of 50% or more. The list shows a part of the results.
test system: Plasmodium falciparum; experiment: Primary screen in NF54 nanoGlo assay, in single point, at 2uM, 72h; a lower Z score goes with more inhibition; type: functional, Erythrocyte; details: timepoint 72 hour

Structure (SMILES)	% Inhibition	Z score
CCN1CCC(N2C[C@@H]3OC(=O)N(CCCc4ccc(F)cc4)[C@@H]3C2)CC1	-3%	0.37
C=CCN1CC[C@@]2(CCC1=O)CN(c1cccc(C#N)n1)CCN2C	-1%	0.25
COc1ccccc1C(N)=NOCc1csc(C2CCCC2)n1	-9%	1.19
COc1ccc(CC(=O)N2CCC(Oc3ncccc3Br)CC2)cc1OC	-8%	1.53
O=C(NC1CCOCC1)c1cc(Cl)ccc1OC1CCN(C2CCCC2)CC1	-18%	2.59
NC(=O)N1CCC(Nc2ccc([C@H]3CCOC3)cc2)CC1	3%	-0.46
COc1cnc(NC(=O)[C@@H]2CC[C@H](C(=O)N(C)C)O2)cn1	-12%	1.42
Cc1ccc(-c2cc(NC(=O)c3ccccc3)c(=O)n(CC(=O)Nc3cc(F)cc(F)c3)n2)cc1	-5%	0.78
COc1ccc(-c2cnn3c(C)cc(C)nc23)cc1S(=O)(=O)NCc1ccc2c(c1)OCO2	-16%	1.52
Cc1cccc(CNC(=O)NC2CCOC2c2ccc(Cl)cc2)n1 (stereo unspecified)	33%	-4.45
Cc1n[nH]c(C(F)(F)F)c1-c1cccc(C(=O)N2CCNC(=O)CC2)c1	-11%	2.24
Cc1cnc(C)n1C[C@H]1CCN(C(=O)c2ccoc2)C1	-11%	1.42
Cc1noc(CCNC(=O)c2cn(C)cn2)n1	-5%	0.61
O=C(c1cc(Cl)cc(Cl)c1)N1c2ccccc2C=Cc2ccccc21	-4%	0.81
CCN(CC(=O)NCc1cccs1)C(=O)c1cc(S(=O)(=O)N2CCCCC2)ccc1Cl	0%	0.01
Cc1cccc(N2CCN(C(=O)c3nn(C)c4c3COCC4)CC2)c1C	4%	-0.52
CCO[C@@H](C)c1noc(CNc2nccnc2C#N)n1	-3%	0.49
Cc1cnc(CN2CC(O)(c3ccc(Cl)cc3)C2)nc1	2%	-0.19
CC(NCC1Cc2ccccc2O1)c1ccc(-n2cnnn2)cc1 (stereo unspecified)	3%	-0.29
CC[C@]1(N2CCN(C(=O)NCc3ccco3)CC2)CCN(C(=O)C(C)C)C1	3%	-0.26
Cc1ccc(Cn2c(=O)c(C(=O)NCc3cccnc3)nn(-c3ccc(C)c(F)c3)c2=O)cc1	6%	-1.13

Structure (SMILES)	% Inhibition	Z score
O=C(NCCCN1CCCC1=O)c1cccc(-c2cc(O)ncn2)c1	-3%	0.58
O=C([C@@H]1CC=CCC1)N1CC(N2C(=O)CNC2=O)C1	-7%	1.31
COc1ccnc(NC23CCC2CN(C(=O)c2ccc(C)o2)C3)n1 (stereo unspecified)	-6%	1.16
C=CCN(CC=C)CC(=O)Nc1cc(C(C)(C)C)no1	-1%	0.16
COc1ccc(OCC(=O)N[C@H]2CC(=O)N(c3ccc4c(c3)OCCO4)C2)cc1	-7%	1.31
Cc1cccnc1[C@@H](NC(=O)c1cc(Cl)cn1C)C1CC1	-18%	1.65
O=C(CNS(=O)(=O)c1ccccc1)NCC(=O)OCc1ccc(S(=O)(=O)Cc2ccccc2)cc1	5%	-0.73
CCCOc1ccccc1CCCNC(=O)N1C[C@H]2C[C@H](O)[C@@H](O)C[C@H]2C1	5%	-0.74
CN(C)c1nc2c(c(N3CC=CCC3)n1)CCN(C1CCOCC1)CC2	-18%	1.6
Cn1ncc2c(Nc3ccc4c(c3)OCO4)ncnc21	10%	-1.14
COCCCN1CCN(C(=O)Nc2cccc3ncccc23)CC1	-4%	0.82
Cc1n[nH]c(C2CN(CC3CCCCO3)CCO2)n1 (stereo unspecified)	-12%	1.22
O=C(Nc1nnc(C2CC2)s1)N1CCN(Cc2ccccc2)C2(CCCCC2)C1	2%	-0.38
CCCc1cnc(C)nc1N1C[C@H](c2ccc(OC)cc2)[C@@H](N)C1	-5%	0.59
CC[C@H](NC(=O)c1cncs1)c1ncnn1C	-6%	0.84
Cn1ncnc1-c1ccnc(NC2(c3ccccc3)CC2)n1	-6%	0.71
CCCc1nc2[nH]nc(N)c2c2c1CCC2	14%	-1.76
Cc1nc2ccccc2n1Cc1cc(C(=O)N[C@@H](C)C(N)=O)n[nH]1	-20%	1.83
O=S(=O)(NC1CCCN(CCN2CC3CCC(C2)O3)C1)c1cccc(F)c1 (stereo unspecified)	-11%	1.78
O=C(Cc1cnn(-c2ccccc2)n1)N1CCOC2CCCC21 (stereo unspecified)	-2%	0.4
Cc1nnc(-c2cc(C(C)C)n(-c3ccc(C(=O)N4CCC[C@H](C)C4)cc3)n2)o1	-11%	1.74

Structure (SMILES)	% Inhibition	Z score
CN(C)S(=O)(=O)N(C)Cc1ccc2nsnc2c1	-11%	2.26
O=C(Cn1ncn2nc(-c3ccccc3)cc2c1=O)N1CCN(c2ccccn2)CC1	-21%	1.86
COc1cc(NC(=O)c2cnc(N3CCN(C)CC3)nc2C)cc(OC)c1	-8%	1.28
Cc1cccc(S(=O)(=O)N2CCn3ncc(Br)c32)c1	0%	-0.06
O=C(NC1CCCC1)c1cc2c(F)cccc2s1	2%	-0.27
O=C(NCCC1=CCCCC1)c1coc(NC(=O)c2cnccn2)n1	0%	0.01
O=C(Nc1nncs1)NC1(CO)CCCC1	-2%	0.46
CCN(CC)CCN(C)C(=O)[C@H]1CCCC[C@H]1C(=O)NC(C)(C)C	4%	-0.52
Cc1cc2cc(NC(=O)N(Cc3ccncc3)C3CCN(C)CC3)ccc2o1	19%	-2.54
COCC(NC(=O)N1CCCC(Cc2noc(C)n2)C1)C1CCCO1 (stereo unspecified)	-3%	0.63
CN(Cc1nnc[nH]1)S(=O)(=O)c1ccc2c(c1)OCCCO2	2%	-0.22
COc1ccc(/C=C/CN2C[C@@H]3CC[C@H]2CN(Cc2c(C)noc2C)C3)cc1	-2%	0.3
O=C(Cc1ccccc1)Nc1cc(NC(=O)Cc2ccccc2)cc(C(=O)O)c1	0%	-0.06
CN(CCS(=O)(=O)c1ccccc1)[C@H]1CCS(=O)(=O)C1	1%	-0.15
Clc1ccc(COc2cccc(CNCc3ccc4c(c3)OCO4)c2)cc1	3%	-0.35
CCn1c([C@H]2CCCN(C(=O)Cc3nc4ccccc4o3)C2)n[nH]c1=O	-16%	3.13
CC(C)(C)NC(=O)Cn1c(=O)n(CCc2cccs2)c(=O)c2sccc21	-19%	2.42
CCc1ccc(CN2C[C@@H]3NC(=O)CN(C)C(=O)c4ccc(C)c(c4)Oc4cccc(c4)CO[C@H]3C2)nc1	1%	-0.3
Cc1cc2n(n1)CCCN(C(=O)Cn1cnc3ccccc3c1=O)C2	4%	-0.7
Cc1ccc(C)c(S(=O)(=O)N(C2CC2)[C@H]2CCS(=O)(=O)C2)c1	-1%	0.13
CNC(=O)CCCN(C)C(=O)c1ccc(-c2ncn[nH]2)cc1	-13%	1.3

Structure (SMILES)	% Inhibition	Z score
Cn1nc(CCC(=O)N2CCOCC2)c2c1CCN(C(=O)c1n[nH]c3ccccc13)C2	-13%	1.69
CCOC(=O)N1CCN(c2nc(Nc3ccc(C)cc3)c3nn[nH]c3n2)CC1	-21%	2.79
O=C(NC[C@H]1CCN(CCC(F)(F)F)C1)c1ccc2c(c1)OCO2	0%	0.08
CCN(C)C[C@@H]1CN(Cc2ccc3ccccc3c2)C[C@@H]1CO	-14%	2.43
CC(=Cc1ccccc1)CN(C)S(=O)(=O)N(C)[C@@H](C)CC#N	-5%	0.77
C#CCN(C(=O)CCc1ccc(F)cc1)[C@H]1CCS(=O)(=O)C1	-11%	1.66
COCCOc1cc(C(=O)Nc2onc3c2CCCC3)ccn1	-12%	2.23
Cc1cnc(Cn2cnc(-c3ccccc3)c2-c2cc(C)n[nH]2)cn1	-13%	1.7
CNC(=O)[C@@H]1CC[C@](C)(C(=O)NCCc2nc(C)cc(C)n2)C1(C)C	-7%	1.13
Fc1cccc(-c2ccc(N3CCC(NCc4ncc[nH]4)CC3)cc2)c1	-8%	0.76
O=C(CCC(F)(F)F)N[C@H]1CC(=O)N(C2CCCCCC2)C1	4%	-0.81
Cn1nccc1CN1C(=O)N[C@]2(CCc3cc(Cl)ccc32)C1=O	-6%	0.89
Cc1cccc(N2C(=O)C3ON(c4ccccc4)C(c4c(C)[nH]c5ccccc45)C3C2=O)c1 (stereo unspecified)	-7%	1.09
COc1ccc(CCC(=O)Nc2cc(C)ns2)cc1	2%	-0.32
CC(C)(C)N1C[C@@H](CNC(=O)c2cncnc2)CC1=O	10%	-1.61
c1cc(-c2nc3c(c(NC[C@H]4CCCO4)n2)CCC3)ccn1	-9%	1.38
N#Cc1nccnc1N[C@H]1CCCC2(C1)OCCO2	-3%	0.41
CN(Cc1nc(-c2ccncc2)no1)C(=O)[C@H]1CCCN(Cc2ccco2)C1	-3%	0.56
Cc1nnsc1CN(C)C(=O)c1cccc(F)c1	-14%	2.08
Cn1cc(C(=O)N2CC[C@H](c3cccc(C(F)(F)F)c3)C2)cn1	-15%	1.77

Reference: ChEMBL document CHEMBL4888484, “Replenishing the malaria drug discovery pipeline: Screening and hit evaluation of the MMV Hit Generation Library 1 (HGL1) against asexual blood stage Plasmodium falciparum ,using a nano luciferase reporter read-out” (2022)
